# The other results are listed elsewhere or left out.
# B1: Siglec-7-SA-PE-180 (Homo sapiens), Q9Y286 (protein)
# chain: MLLLLLLPLLWGRERVEGQKSNRKDYSLTMQSSVTVQEGMCVHVRCSFSYPVDSQTDSDPVHGYWFRAGNDISWKAPVATNNPAWAVQEETRDRFHLLGDPQTKNCTLSIRDARMSDAGRYFFRMEKGNIKWNYKYDQLSVNVTALTHRPNILIPGTLESGCFQNLTCSVPWACEQGTPPMISWMGTSVSPLHPSTTRSSVLTLIPQPQHHGTSLTCQVTLPGAGVTTNRTIQLNVSYPPQNLTVTVFQGEGTASTALGNSSSLSVLEGQSLRLVCAVDSNPPARLSWTWRSLTLYPSQPSNPLVLELQVHLGDEGEFTCRAQNSLGSQHVSLNLSLQQEYTGKMRPVSGVLLGAVGGAGATALVFLSFCVIFIVVRSCRKKSARPAADVGDIGMKDANTIRGSASQGNLTESWADDNPRHHGLAAHSSGEEREIQYAPLSFHKGEPQDLSGQEATNNEYSEIKIPK
# Columns and labels:
# Assay in all cases: glycan array binding signal (z-score within array); higher = stronger binding
# Details in all cases: glycan notation: IUPAC condensed, linker removed
# [1] = biological target: GlcNAc(b1-3)Gal(b1-4)GlcNAc(b1-3)GalNAc
# Summary of the method: (§1)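 Arrays were curated from the Consortium for Functional Glycomics database, 3228 in total, and kept only where the protein sequence was available. Binding is expressed as a within-array Z-score. This score was averaged across arrays of the same protein sequence at different concentrations or buffers and across linkers, and negative values can be read as non-binding.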
# [2] = biological target: GlcNAc(b1-3)Gal(b1-4)GlcNAc(b1-3)[GlcNAc(b1-3)Gal(b1-4)GlcNAc(b1-3)]GalNAc
# Summary of the method: as §1
# [3] = biological target: GlcNAc(b1-3)Gal(b1-4)GlcNAc(b1-6)[Gal(b1-3)]GalNAc
# Summary of the method: as §1
# [4] = biological target: GlcNAc(b1-3)Gal(b1-4)GlcNAc(b1-6)[GlcNAc(b1-3)Gal(b1-3)]GalNAc
# Summary of the method: as §1
# [5] = biological target: GlcNAc(b1-3)Gal(b1-4)GlcNAc(b1-6)[GlcNAc(b1-3)]Gal(b1-4)GlcNAc
# Summary of the method: as §1
# [6] = biological target: GlcNAc(b1-3)GalNAc
# Summary of the method: as §1
# [7] = biological target: GlcNAc(b1-3)Man
# Summary of the method: as §1
# [8] = biological target: GlcNAc(b1-3)[GlcNAc(b1-4)][GlcNAc(b1-6)]GlcNAc
# Summary of the method: as §1
# [9] = biological target: GlcNAc(b1-3)[GlcNAc(b1-6)]Gal(b1-4)GlcNAc
# Summary of the method: as §1
# [10] = biological target: GlcNAc(b1-3)[GlcNAc(b1-6)]GalNAc
# Summary of the method: as §1
# [11] = biological target: GlcNAc(b1-4)Gal(b1-4)GlcNAc
# Summary of the method: as §1
# [12] = biological target: GlcNAc(b1-4)GlcNAc
# Summary of the method: as §1
# [13] = biological target: GlcNAc(b1-4)GlcNAc(b1-4)GlcNAc
# Summary of the method: as §1
# [14] = biological target: GlcNAc(b1-4)GlcNAc(b1-4)GlcNAc(b1-4)GlcNAc(b1-4)GlcNAc
# Summary of the method: as §1
# [15] = biological target: GlcNAc(b1-4)GlcNAc(b1-4)GlcNAc(b1-4)GlcNAc(b1-4)GlcNAc(b1-4)GlcNAc
# Summary of the method: as §1
# [16] = biological target: GlcNAc(b1-4)[GlcNAc(b1-6)]GalNAc
# Summary of the method: as §1
# [17] = biological target: GlcNAc(b1-6)Gal(b1-4)GlcNAc
# Summary of the method: as §1
# [18] = biological target: GlcNAc(b1-6)GalNAc
# Summary of the method: as §1
# [19] = biological target: GlcNAc3Prop(b1-4)GlcNAc
# Summary of the method: as §1
# [20] = biological target: GlcNAc6S(b1-3)Gal(b1-4)GlcNAc
# Summary of the method: as §1
# [21] = biological target: Kdn(a2-3)Gal(b1-3)GalNAc
# Summary of the method: as §1
# [22] = biological target: Kdn(a2-3)Gal(b1-3)GlcNAc
# Summary of the method: as §1
# [23] = biological target: Kdn(a2-3)Gal(b1-4)Glc
# Summary of the method: as §1
# [24] = biological target: Kdn(a2-3)Gal(b1-4)GlcNAc
# Summary of the method: as §1
# [25] = biological target: Kdn(a2-3)Gal(b1-4)[Fuc(a1-3)]GlcNAc
# Summary of the method: as §1
# [26] = biological target: Kdn(a2-6)Gal(b1-4)GlcNAc
# Summary of the method: as §1
# [27] = biological target: Man(a1-2)Man(a1-2)Man(a1-3)Man
# Summary of the method: as §1
# [28] = biological target: Man(a1-2)Man(a1-2)Man(a1-6)[Man(a1-3)]Man
# Summary of the method: as §1
# [29] = biological target: Man(a1-2)Man(a1-3)Man
# Summary of the method: as §1
# [30] = biological target: Man(a1-2)Man(a1-3)[Man(a1-2)Man(a1-6)]Man
# Summary of the method: as §1
# [31] = biological target: Man(a1-2)Man(a1-3)[Man(a1-2)Man(a1-6)]Man(a1-6)[Man(a1-2)Man(a1-2)Man(a1-3)]Man
# Summary of the method: as §1
# [32] = biological target: Man(a1-2)Man(a1-3)[Man(a1-2)Man(a1-6)]Man(a1-6)[Man(a1-2)Man(a1-2)Man(a1-3)]Man(b1-4)GlcNAc(b1-4)GlcNAc
# Summary of the method: as §1
# [33] = biological target: Man(a1-2)Man(a1-3)[Man(a1-6)]Man(a1-6)[Man(a1-2)Man(a1-3)]Man(b1-4)GlcNAc(b1-4)GlcNAc
# Summary of the method: as §1
# [34] = biological target: Man(a1-2)Man(a1-6)[Man(a1-3)]Man(a1-6)[Man(a1-2)Man(a1-2)Man(a1-3)]Man
# Summary of the method: as §1
# [35] = biological target: Man(a1-2)Man(a1-6)[Man(a1-3)]Man(a1-6)[Man(a1-2)Man(a1-2)Man(a1-3)]Man(b1-4)GlcNAc(b1-4)GlcNAc
# Summary of the method: as §1
# [36] = biological target: Man(a1-3)[Man(a1-6)]Man
# Summary of the method: as §1
# [37] = biological target: Man(a1-3)[Man(a1-6)]Man(a1-6)[Man(a1-2)Man(a1-3)]Man(b1-4)GlcNAc(b1-4)GlcNAc
# Summary of the method: as §1
# [38] = biological target: Man(a1-3)[Man(a1-6)]Man(a1-6)[Man(a1-3)]Man
# Summary of the method: as §1
binder,measurement,setting,value
B1,glycan array binding signal (z-score),[1],-0.385
same,glycan array binding signal (z-score),[2],-0.227
same,glycan array binding signal (z-score),[3],-0.55
same,glycan array binding signal (z-score),[4],-0.394
same,glycan array binding signal (z-score),[5],-0.191
same,glycan array binding signal (z-score),[6],-0.221
same,glycan array binding signal (z-score),[7],-0.226
same,glycan array binding signal (z-score),[8],1.28
same,glycan array binding signal (z-score),[9],-0.346
same,glycan array binding signal (z-score),[10],-0.27
same,glycan array binding signal (z-score),[11],-0.096
same,glycan array binding signal (z-score),[12],-0.385
same,glycan array binding signal (z-score),[13],-0.388
same,glycan array binding signal (z-score),[14],-0.342
same,glycan array binding signal (z-score),[15],-0.501
same,glycan array binding signal (z-score),[16],-0.237
same,glycan array binding signal (z-score),[17],-0.316
same,glycan array binding signal (z-score),[18],-0.376
same,glycan array binding signal (z-score),[19],0.06
same,glycan array binding signal (z-score),[20],-0.527
same,glycan array binding signal (z-score),[21],0.057
same,glycan array binding signal (z-score),[22],-0.171
same,glycan array binding signal (z-score),[23],0.225
same,glycan array binding signal (z-score),[24],-0.083
same,glycan array binding signal (z-score),[25],-0.164
same,glycan array binding signal (z-score),[26],-0.461
same,glycan array binding signal (z-score),[27],-0.434
same,glycan array binding signal (z-score),[28],-0.31
same,glycan array binding signal (z-score),[29],-0.394
same,glycan array binding signal (z-score),[30],-0.408
same,glycan array binding signal (z-score),[31],-0.299
same,glycan array binding signal (z-score),[32],-0.021
same,glycan array binding signal (z-score),[33],-0.186
same,glycan array binding signal (z-score),[34],-0.187
same,glycan array binding signal (z-score),[35],-0.298
same,glycan array binding signal (z-score),[36],-0.286
same,glycan array binding signal (z-score),[37],-0.284
same,glycan array binding signal (z-score),[38],-0.406

# — the supplement of paper PMC8728848
